Consider one substance from paper PMC2946606.

Protein sequences, listed by entry. Tags and fused reporters are not part of them. Residues count along the entry.
GST-Med1 fragment aa 860–980 (Q925J9, residues 860-980): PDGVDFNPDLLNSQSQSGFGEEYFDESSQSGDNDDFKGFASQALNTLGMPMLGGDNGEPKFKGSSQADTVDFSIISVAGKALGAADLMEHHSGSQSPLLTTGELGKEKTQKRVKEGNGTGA
GST-Med1 fragment aa 980–1055 (Q925J9, residues 980-1055): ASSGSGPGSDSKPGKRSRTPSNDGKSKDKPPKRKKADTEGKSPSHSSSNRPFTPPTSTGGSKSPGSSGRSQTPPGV
GST-Med1 fragment aa 1130–1250 (Q925J9, residues 1130-1250): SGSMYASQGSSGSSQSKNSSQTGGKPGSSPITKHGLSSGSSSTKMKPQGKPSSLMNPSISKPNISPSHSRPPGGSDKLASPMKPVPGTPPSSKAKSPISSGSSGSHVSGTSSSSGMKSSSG
GST-Med1 fragment aa 1250–1370 (Q925J9, residues 1250-1370): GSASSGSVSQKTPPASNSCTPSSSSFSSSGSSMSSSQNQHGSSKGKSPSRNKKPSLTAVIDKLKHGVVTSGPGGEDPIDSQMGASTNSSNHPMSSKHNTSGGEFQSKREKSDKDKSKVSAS
UniProt Q92616: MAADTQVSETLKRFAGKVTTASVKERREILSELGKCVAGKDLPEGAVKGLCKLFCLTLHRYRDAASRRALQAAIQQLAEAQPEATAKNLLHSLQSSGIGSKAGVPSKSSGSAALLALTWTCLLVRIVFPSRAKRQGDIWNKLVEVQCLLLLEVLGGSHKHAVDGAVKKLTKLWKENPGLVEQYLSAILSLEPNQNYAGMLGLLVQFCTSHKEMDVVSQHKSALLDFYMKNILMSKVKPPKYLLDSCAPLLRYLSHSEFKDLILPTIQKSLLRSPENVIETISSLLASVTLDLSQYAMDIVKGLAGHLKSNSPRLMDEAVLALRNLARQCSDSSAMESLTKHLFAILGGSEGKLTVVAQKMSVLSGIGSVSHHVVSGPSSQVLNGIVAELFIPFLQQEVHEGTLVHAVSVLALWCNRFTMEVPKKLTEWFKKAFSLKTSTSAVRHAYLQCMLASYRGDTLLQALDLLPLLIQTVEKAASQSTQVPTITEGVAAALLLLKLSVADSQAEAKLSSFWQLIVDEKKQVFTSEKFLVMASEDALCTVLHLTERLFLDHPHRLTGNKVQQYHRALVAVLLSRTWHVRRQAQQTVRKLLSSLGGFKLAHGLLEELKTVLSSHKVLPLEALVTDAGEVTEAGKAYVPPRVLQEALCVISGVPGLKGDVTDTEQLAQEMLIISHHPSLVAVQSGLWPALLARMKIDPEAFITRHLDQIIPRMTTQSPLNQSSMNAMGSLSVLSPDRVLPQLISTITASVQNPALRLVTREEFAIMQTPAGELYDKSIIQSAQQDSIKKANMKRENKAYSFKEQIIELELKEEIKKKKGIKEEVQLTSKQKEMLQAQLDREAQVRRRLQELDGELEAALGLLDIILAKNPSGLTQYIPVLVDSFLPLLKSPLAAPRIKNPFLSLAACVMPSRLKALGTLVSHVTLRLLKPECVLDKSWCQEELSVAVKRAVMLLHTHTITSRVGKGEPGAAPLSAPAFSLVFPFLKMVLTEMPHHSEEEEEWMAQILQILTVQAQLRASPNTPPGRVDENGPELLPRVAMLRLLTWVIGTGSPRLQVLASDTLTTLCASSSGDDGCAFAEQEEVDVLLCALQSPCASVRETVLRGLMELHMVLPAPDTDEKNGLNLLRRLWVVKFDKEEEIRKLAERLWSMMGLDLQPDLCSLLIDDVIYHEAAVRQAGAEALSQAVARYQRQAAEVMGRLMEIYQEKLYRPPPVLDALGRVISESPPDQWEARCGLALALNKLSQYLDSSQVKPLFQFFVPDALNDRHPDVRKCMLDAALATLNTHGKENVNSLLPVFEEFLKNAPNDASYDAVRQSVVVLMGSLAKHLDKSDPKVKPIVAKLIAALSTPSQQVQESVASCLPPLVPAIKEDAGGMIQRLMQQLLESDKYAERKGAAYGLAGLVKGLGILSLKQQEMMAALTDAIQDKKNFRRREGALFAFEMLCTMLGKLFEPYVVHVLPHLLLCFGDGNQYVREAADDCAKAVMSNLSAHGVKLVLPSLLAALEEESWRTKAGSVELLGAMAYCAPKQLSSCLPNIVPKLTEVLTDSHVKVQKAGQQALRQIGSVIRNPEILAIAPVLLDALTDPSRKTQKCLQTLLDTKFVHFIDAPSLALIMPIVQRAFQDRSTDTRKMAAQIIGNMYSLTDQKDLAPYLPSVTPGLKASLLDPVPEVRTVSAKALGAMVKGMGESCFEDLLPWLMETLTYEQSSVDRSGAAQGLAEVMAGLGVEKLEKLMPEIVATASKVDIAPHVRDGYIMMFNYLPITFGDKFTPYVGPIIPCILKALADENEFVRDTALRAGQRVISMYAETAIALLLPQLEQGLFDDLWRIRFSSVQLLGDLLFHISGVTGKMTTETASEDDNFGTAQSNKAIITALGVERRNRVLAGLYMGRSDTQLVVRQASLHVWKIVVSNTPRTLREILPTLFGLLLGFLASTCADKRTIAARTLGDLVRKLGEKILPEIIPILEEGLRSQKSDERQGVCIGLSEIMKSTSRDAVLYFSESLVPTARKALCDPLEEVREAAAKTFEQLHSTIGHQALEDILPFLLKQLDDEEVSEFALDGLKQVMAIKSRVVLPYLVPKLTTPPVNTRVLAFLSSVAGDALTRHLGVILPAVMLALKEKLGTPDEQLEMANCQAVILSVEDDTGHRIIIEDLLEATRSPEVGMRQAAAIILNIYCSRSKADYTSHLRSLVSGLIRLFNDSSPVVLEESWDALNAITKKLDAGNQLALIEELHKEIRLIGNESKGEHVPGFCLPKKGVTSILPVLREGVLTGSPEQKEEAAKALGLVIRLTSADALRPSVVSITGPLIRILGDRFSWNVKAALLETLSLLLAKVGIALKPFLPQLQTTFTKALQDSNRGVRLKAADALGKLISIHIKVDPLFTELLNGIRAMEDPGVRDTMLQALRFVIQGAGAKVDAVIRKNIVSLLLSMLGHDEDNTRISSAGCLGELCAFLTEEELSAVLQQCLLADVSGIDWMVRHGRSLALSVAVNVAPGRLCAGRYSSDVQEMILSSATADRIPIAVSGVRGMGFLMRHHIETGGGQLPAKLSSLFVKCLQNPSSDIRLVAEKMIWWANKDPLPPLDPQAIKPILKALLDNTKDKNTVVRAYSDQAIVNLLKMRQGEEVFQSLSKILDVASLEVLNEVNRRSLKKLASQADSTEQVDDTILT

What all share (assay): pull-down; GST or GST-fusion protein on glutathione sepharose 4B beads, incubated with in vitro translated 35S-methionine PRIC295 or its fragments, 4°C, 2 hours, gentle shaker; washed, SDS-PAGE, autoradiography; nuclear receptors without and with receptor-specific ligand (10 μM to 100 μM); only the target purified
The target in experiment [1] is T1, GST-CAR (UniProt O35627).
T1 sequence: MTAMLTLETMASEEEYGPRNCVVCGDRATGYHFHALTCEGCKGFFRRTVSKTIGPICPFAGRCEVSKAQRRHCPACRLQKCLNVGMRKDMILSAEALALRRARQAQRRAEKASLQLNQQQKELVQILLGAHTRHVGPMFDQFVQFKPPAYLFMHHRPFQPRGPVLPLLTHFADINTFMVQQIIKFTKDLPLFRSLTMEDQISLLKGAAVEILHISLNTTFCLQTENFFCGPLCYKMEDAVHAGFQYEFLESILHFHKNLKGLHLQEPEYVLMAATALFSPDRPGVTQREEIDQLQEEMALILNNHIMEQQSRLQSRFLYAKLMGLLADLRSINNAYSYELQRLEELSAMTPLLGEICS

The target of experiment [2] is GST-Med1 fragment aa 1130–1250 (UniProt Q925J9).
The target of experiment [3] is GST-Med1 fragment aa 1250–1370 (UniProt Q925J9).
Experiment [4] has as its target GST-Med1 fragment aa 860–980 (UniProt Q925J9).
Experiment [5] concerns the target GST-Med1 fragment aa 980–1055 (UniProt Q925J9).
Experiment [6] addresses T2, GST-PPARα (UniProt P23204).
T2 sequence: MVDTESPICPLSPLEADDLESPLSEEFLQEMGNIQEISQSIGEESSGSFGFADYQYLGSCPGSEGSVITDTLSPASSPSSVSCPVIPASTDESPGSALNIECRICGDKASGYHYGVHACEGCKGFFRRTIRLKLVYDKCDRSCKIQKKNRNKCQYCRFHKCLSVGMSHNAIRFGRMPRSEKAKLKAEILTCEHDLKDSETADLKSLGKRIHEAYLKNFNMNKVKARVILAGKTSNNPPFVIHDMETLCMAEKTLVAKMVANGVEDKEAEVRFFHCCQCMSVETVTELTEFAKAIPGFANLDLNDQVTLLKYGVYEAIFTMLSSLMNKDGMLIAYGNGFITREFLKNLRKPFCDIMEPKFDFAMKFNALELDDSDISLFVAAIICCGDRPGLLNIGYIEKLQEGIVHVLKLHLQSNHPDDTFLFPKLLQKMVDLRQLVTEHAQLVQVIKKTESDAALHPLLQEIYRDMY

In experiment [7] the target is T3, Med24 (construct of the GST-pulldown of Figure 9(c)) (UniProt O75448).
T3 sequence: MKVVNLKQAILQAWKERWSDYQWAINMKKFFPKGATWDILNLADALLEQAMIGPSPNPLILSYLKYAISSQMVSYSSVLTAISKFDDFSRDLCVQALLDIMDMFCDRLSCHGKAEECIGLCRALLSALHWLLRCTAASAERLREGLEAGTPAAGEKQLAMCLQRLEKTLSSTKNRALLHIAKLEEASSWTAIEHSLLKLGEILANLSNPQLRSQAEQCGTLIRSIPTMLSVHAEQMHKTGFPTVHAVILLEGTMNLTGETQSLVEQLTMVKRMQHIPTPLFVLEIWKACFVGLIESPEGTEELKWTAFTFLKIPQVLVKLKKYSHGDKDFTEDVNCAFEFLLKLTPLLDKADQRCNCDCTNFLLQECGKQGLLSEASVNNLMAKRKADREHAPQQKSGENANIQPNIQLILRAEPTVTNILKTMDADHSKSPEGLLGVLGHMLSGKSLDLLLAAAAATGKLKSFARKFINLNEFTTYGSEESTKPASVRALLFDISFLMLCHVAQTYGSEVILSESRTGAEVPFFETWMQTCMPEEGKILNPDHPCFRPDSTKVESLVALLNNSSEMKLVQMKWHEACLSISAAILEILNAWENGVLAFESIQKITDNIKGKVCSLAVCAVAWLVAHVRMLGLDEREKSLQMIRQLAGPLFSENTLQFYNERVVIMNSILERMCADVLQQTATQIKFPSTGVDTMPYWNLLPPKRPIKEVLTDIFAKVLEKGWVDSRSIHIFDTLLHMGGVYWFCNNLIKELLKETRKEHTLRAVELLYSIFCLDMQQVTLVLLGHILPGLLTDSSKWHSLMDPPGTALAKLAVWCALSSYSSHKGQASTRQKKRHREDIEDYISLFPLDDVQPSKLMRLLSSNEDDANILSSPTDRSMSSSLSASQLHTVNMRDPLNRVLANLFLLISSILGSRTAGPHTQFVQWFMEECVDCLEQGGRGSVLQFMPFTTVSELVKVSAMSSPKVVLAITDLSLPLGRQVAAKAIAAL

Results are given in words; binding and its absence hold for the method and conditions named. In cells and extracts the contact can be indirect. Some entries that bind do so weakly or less than the wild type. For some of these results: Tags and fused reporters may be left off the sequences shown.

Regarding “PRIC295 (PPARα-interacting cofactor 295), full-length, in vitro translated (from UniProt Q92616 1-2671)”, the binding entry in experiment [1] is on record as “binds”; in experiment [2], “no binding”; in experiment [3], “no binding”; in experiment [4], “no binding”; in experiment [5], “no binding”; in experiment [6], “binds”. Further, the binding entry in experiment [7] was “binds”.
